The other results are listed elsewhere or left out.
What was measured:
[1] = system: HSkMC (human skeletal muscle cells); assay: cytotoxicity call (relative viability < 0.9); conditions: 10 µM
[2] = system: HepG2; assay: cytotoxicity call (relative viability < 0.9); conditions: 10 µM
[3] = system: S. aureus RN4220; assay: growth inhibition call (relative growth <= 0.2); conditions: 50 µM

| Structure (SMILES) | cytotoxicity call [1] | cytotoxicity call [2] | growth inhibition call [3] |
| --- | --- | --- | --- |
| Cl.Cl.NCCNCCNCCN | inactive | inactive | inactive |
| C[C@@H]1CN([C@H](C)CO)C(=O)c2cccc(NC(=O)Nc3ccc4c(c3)OCO4)c2O[C@H]1CN(C)C(=O)Nc1cccc2ccccc12 | inactive | inactive | inactive |
| CN1CCN(C(=O)C[C@H]2CC[C@@H]3[C@H](COc4ccc(NC(=O)C5CCCCC5)cc4C(=O)N3C)O2)CC1 | inactive | inactive | inactive |
| C[C@H](CO)N1C[C@H](C)[C@@H](CN(C)Cc2ccc(C(F)(F)F)cc2)Oc2ccc(NC(=O)Nc3cccc4ccccc34)cc2C1=O | inactive | inactive | inactive |
| O=C(C[C@H]1CC[C@@H]2[C@H](COC[C@@H](O)CN2C(=O)Nc2cccc(F)c2)O1)NCc1ccccc1Cl | inactive | inactive | inactive |
| CC[C@H]1OC(=O)[C@H](C)[C@@H](O[C@H]2C[C@@](C)(OC)[C@@H](O)[C@H](C)O2)[C@H](C)[C@@H](O[C@@H]2O[C@H](C)C[C@H](N(C)C)[C@H]2O)[C@](C)(O)C[C@@H](C)C(=O)[C@H](C)[C@@H](O)[C@]1(C)O | inactive | active | active |
| NCCOc1cccc(Cl)c1 | inactive | inactive | inactive |
| O=C(C[C@@H]1CC[C@@H]2[C@H](COC[C@@H](O)CN2S(=O)(=O)c2ccccc2)O1)NCCN1CCCCC1 | inactive | inactive | inactive |
| CCCCCCCCCCCCC(C(=O)O)C(C)C(=O)O (configuration not stated) | inactive | inactive | inactive |
| Cc1noc(C)c1NC(=O)N(C)C[C@H]1OCCCC[C@@H](C)Oc2ccc(NC(=O)Nc3cccc4ccccc34)cc2C(=O)N([C@@H](C)CO)C[C@H]1C | inactive | inactive | inactive |
| COc1ccc(NC(=O)Nc2ccc3c(c2)C(=O)N([C@@H](C)CO)C[C@H](C)[C@H](CN(C)S(=O)(=O)c2ccc(C)cc2)OCCCC[C@@H](C)O3)cc1 | inactive | inactive | inactive |
| COc1ccc([C@@H]2CC=CC[C@@H](C)Oc3ccccc3C(=O)N(C)[C@H](Cc3ccccc3)C(=O)N2)c(OC)c1 | inactive | inactive | inactive |
| C[C@H](CO)N1C[C@H](C)[C@@H](CN(C)C(=O)Nc2ccc(C(F)(F)F)cc2)Oc2ccc(NC(=O)Nc3ccc(F)cc3)cc2CC1=O | inactive | active | inactive |
| COc1ccc(NC(=O)Nc2ccc3c(c2)CC(=O)N([C@H](C)CO)C[C@H](C)[C@@H](CN(C)Cc2ccc(C(F)(F)F)cc2)O3)cc1 | inactive | inactive | inactive |
| COc1ccc(NC(=O)Nc2ccc3c(c2)C(=O)N([C@@H](C)CO)C[C@H](C)[C@H](CN(C)C(=O)Nc2ccc4c(c2)OCO4)OCCCC[C@@H](C)O3)cc1 | inactive | inactive | inactive |
| Cc1noc(C)c1NC(=O)Nc1ccc2c(c1)C(=O)N([C@@H](C)CO)C[C@H](C)[C@H](CN(C)Cc1ccc(C(=O)O)cc1)OCCCC[C@@H](C)O2 | inactive | inactive | inactive |
| C[C@H](CO)N1C[C@H](C)[C@H](CN(C)C(=O)CN(C)C)Oc2cc(C#Cc3ccc(F)cc3)ccc2S1(=O)=O | inactive | inactive | inactive |
| NS(=O)(=O)c1cc2c(cc1C(F)(F)F)NCNS2(=O)=O | inactive | inactive | inactive |
| CC(C)NC(=O)Nc1ccc2c(c1)C(=O)N([C@@H](C)CO)C[C@@H](C)[C@@H](CN(C)Cc1ccc(C(F)(F)F)cc1)OCCCC[C@@H](C)O2 | inactive | active | inactive |
| C[C@@H]1CCCCO[C@H](CN(C)Cc2ccc(C(=O)O)cc2)[C@H](C)CN([C@H](C)CO)C(=O)c2cc(NC(=O)Nc3ccccc3)ccc2O1 | inactive | inactive | inactive |
| Cc1ccc(S(=O)(=O)N(C)C[C@H]2Oc3c(NC(=O)Nc4ccc(C(F)(F)F)cc4)cccc3C(=O)N([C@@H](C)CO)C[C@H]2C)cc1 | active | active | inactive |
| C[C@H]1CCCCO[C@H](CN(C)C(=O)Nc2cccc3ccccc23)[C@@H](C)CN([C@@H](C)CO)C(=O)c2cc(NS(=O)(=O)c3ccccc3)ccc2O1 | inactive | inactive | inactive |
| C[C@@H]1CN([C@@H](C)CO)C(=O)c2cc(C#CCN(C)C)cnc2O[C@@H]1CN(C)C(=O)CCN1CCCCC1 | inactive | inactive | inactive |
| C[C@@H]1CN([C@@H](C)CO)C(=O)c2cccc(NS(=O)(=O)c3cn(C)cn3)c2O[C@H]1CN(C)Cc1ccc2c(c1)OCO2 | inactive | inactive | inactive |
